Measured values reported in the supplement of paper PMC8728848.
The list shows a part of the results.

Columns and labels:
Assay in all cases: glycan array binding signal (z-score within array); higher = stronger binding
Details in all cases: glycan notation: IUPAC condensed, linker removed
[1] = biological target: Neu5Ac(a2-3)Gal(b1-3)[Fuc(a1-4)]GlcNAc
Outline: (§1)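 The binding signal is a Z-score computed within each array and averaged over linkers. Arrays of the same protein sequence at different concentrations or buffers were also averaged together. Data originate from 3228 arrays in the Consortium for Functional Glycomics database, kept only where the protein sequence was available.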

[2] = biological target: Neu5Ac(a2-3)Gal(b1-3)[Fuc(a1-4)]GlcNAc(b1-3)Gal(b1-3)[Fuc(a1-4)]GlcNAc
Outline: as §1

[3] = biological target: Neu5Ac(a2-3)Gal(b1-3)[Fuc(a1-4)]GlcNAc(b1-3)Gal(b1-4)[Fuc(a1-3)]GlcNAc
Outline: as §1

[4] = biological target: Neu5Ac(a2-3)Gal(b1-3)[GlcNAc(b1-6)]GalNAc
Outline: as §1

[5] = biological target: Neu5Ac(a2-3)Gal(b1-3)[Neu5Ac(a2-6)]GalNAc
Outline: as §1

[6] = biological target: Neu5Ac(a2-3)Gal(b1-3)[Neu5Ac(a2-6)]GlcNAc(b1-3)[Fuc(a1-3)[Gal(b1-4)]GlcNAc(b1-6)]Gal(b1-4)Glc
Outline: as §1

[7] = biological target: Neu5Ac(a2-3)Gal(b1-3)]Neu5Ac(a2-3)Gal(b1-4)]GlcNAc
Outline: as §1

[8] = biological target: Neu5Ac(a2-3)Gal(b1-4)Glc
Outline: as §1

[9] = biological target: Neu5Ac(a2-3)Gal(b1-4)GlcNAc
Outline: as §1

[10] = biological target: Neu5Ac(a2-3)Gal(b1-4)GlcNAc(b1-2)Man
Outline: as §1

[11] = biological target: Neu5Ac(a2-3)Gal(b1-4)GlcNAc(b1-2)Man(a1-3)[GlcNAc(b1-4)][Neu5Ac(a2-3)Gal(b1-4)GlcNAc(b1-2)Man(a1-6)]Man(b1-4)GlcNAc(b1-4)GlcNAc
Outline: as §1

[12] = biological target: Neu5Ac(a2-3)Gal(b1-4)GlcNAc(b1-2)Man(a1-3)[Neu5Ac(a2-3)Gal(b1-4)GlcNAc(b1-2)Man(a1-6)]Man(b1-4)GlcNAc(b1-4)GlcNAc
Outline: as §1

[13] = biological target: Neu5Ac(a2-3)Gal(b1-4)GlcNAc(b1-2)Man(a1-3)[Neu5Ac(a2-3)Gal(b1-4)GlcNAc(b1-2)Man(a1-6)]Man(b1-4)GlcNAc(b1-4)[Fuc(a1-6)]GlcNAc
Outline: as §1

[14] = biological target: Neu5Ac(a2-3)Gal(b1-4)GlcNAc(b1-2)Man(a1-3)[Neu5Ac(a2-6)Gal(b1-4)GlcNAc(b1-2)Man(a1-6)]Man(b1-4)GlcNAc(b1-4)GlcNAc
Outline: as §1

[15] = biological target: Neu5Ac(a2-3)Gal(b1-4)GlcNAc(b1-2)[Neu5Ac(a2-3)Gal(b1-4)GlcNAc(b1-2)]Man(a1-6)[Neu5Ac(a2-3)Gal(b1-4)GlcNAc(b1-2)Man(a1-3)][GlcNAc(b1-4)]Man(b1-4)GlcNAc(b1-4)GlcNAc
Outline: as §1

[16] = biological target: Neu5Ac(a2-3)Gal(b1-4)GlcNAc(b1-2)[Neu5Ac(a2-3)Gal(b1-4)GlcNAc(b1-4)]Man(a1-3)[GlcNAc(b1-4)][Neu5Ac(a2-3)Gal(b1-4)GlcNAc(b1-2)[Neu5Ac(a2-3)Gal(b1-4)GlcNAc(b1-6)]Man(a1-6)]Man(b1-4)GlcNAc(b1-4)GlcNAc
Outline: as §1

[17] = biological target: Neu5Ac(a2-3)Gal(b1-4)GlcNAc(b1-2)[Neu5Ac(a2-3)Gal(b1-4)GlcNAc(b1-4)]Man(a1-3)[GlcNAc(b1-4)][Neu5Ac(a2-3)Gal(b1-4)GlcNAc(b1-4)Man(a1-6)]Man(b1-4)GlcNAc(b1-4)GlcNAc
Outline: as §1

[18] = biological target: Neu5Ac(a2-3)Gal(b1-4)GlcNAc(b1-2)[Neu5Ac(a2-3)Gal(b1-4)GlcNAc(b1-6)]Man(a1-6)[Neu5Ac(a2-3)Gal(b1-4)GlcNAc(b1-2)Man(a1-3)]Man(b1-4)GlcNAc(b1-4)GlcNAc
Outline: as §1

[19] = biological target: Neu5Ac(a2-3)Gal(b1-4)GlcNAc(b1-3)Gal
Outline: as §1

[20] = biological target: Neu5Ac(a2-3)Gal(b1-4)GlcNAc(b1-3)Gal(b1-3)GlcNAc
Outline: as §1

[21] = biological target: Neu5Ac(a2-3)Gal(b1-4)GlcNAc(b1-3)Gal(b1-4)GlcNAc
Outline: as §1

[22] = biological target: Neu5Ac(a2-3)Gal(b1-4)GlcNAc(b1-3)Gal(b1-4)GlcNAc(b1-2)Man(a1-3)[Neu5Ac(a2-3)Gal(b1-4)GlcNAc(b1-3)Gal(b1-4)GlcNAc(b1-2)Man(a1-6)]Man(b1-4)GlcNAc(b1-4)GlcNAc
Outline: as §1

[23] = biological target: Neu5Ac(a2-3)Gal(b1-4)GlcNAc(b1-3)Gal(b1-4)GlcNAc(b1-3)Gal(b1-4)GlcNAc
Outline: as §1

[24] = biological target: Neu5Ac(a2-3)Gal(b1-4)GlcNAc(b1-3)Gal(b1-4)GlcNAc(b1-3)Gal(b1-4)GlcNAc(b1-2)Man(a1-3)[Neu5Ac(a2-3)Gal(b1-4)GlcNAc(b1-3)Gal(b1-4)GlcNAc(b1-3)Gal(b1-4)GlcNAc(b1-2)Man(a1-6)]GalNAc
Outline: as §1

[25] = biological target: Neu5Ac(a2-3)Gal(b1-4)GlcNAc(b1-3)Gal(b1-4)GlcNAc(b1-3)GalNAc
Outline: as §1

[26] = biological target: Neu5Ac(a2-3)Gal(b1-4)GlcNAc(b1-3)Gal(b1-4)GlcNAc(b1-3)[Neu5Ac(a2-3)Gal(b1-4)GlcNAc(b1-3)Gal(b1-4)GlcNAc(b1-6)]GalNAc
Outline: as §1

[27] = biological target: Neu5Ac(a2-3)Gal(b1-4)GlcNAc(b1-3)Gal(b1-4)GlcNAc(b1-6)[Gal(b1-3)]GalNAc
Outline: as §1

[28] = biological target: Neu5Ac(a2-3)Gal(b1-4)GlcNAc(b1-3)Gal(b1-4)[Fuc(a1-3)]GlcNAc
Outline: as §1

[29] = biological target: Neu5Ac(a2-3)Gal(b1-4)GlcNAc(b1-3)GalNAc
Outline: as §1

[30] = biological target: Neu5Ac(a2-3)Gal(b1-4)GlcNAc(b1-3)[Neu5Ac(a2-3)Gal(b1-4)GlcNAc(b1-6)]GalNAc
Outline: as §1

[31] = biological target: Neu5Ac(a2-3)Gal(b1-4)GlcNAc(b1-6)GalNAc
Outline: as §1

[32] = biological target: Neu5Ac(a2-3)Gal(b1-4)GlcNAc(b1-6)[Gal(b1-3)]GalNAc
Outline: as §1

[33] = biological target: Neu5Ac(a2-3)Gal(b1-4)GlcNAc(b1-6)[Neu5Ac(a2-3)Gal(b1-3)]GalNAc
Outline: as §1

[34] = biological target: Neu5Ac(a2-3)Gal(b1-4)GlcNAc6S
Outline: as §1

[35] = biological target: Neu5Ac(a2-3)Gal(b1-4)[Fuc(a1-3)]GlcNAc
Outline: as §1

[36] = biological target: Neu5Ac(a2-3)Gal(b1-4)[Fuc(a1-3)]GlcNAc(b1-2)Man
Outline: as §1

[37] = biological target: Neu5Ac(a2-3)Gal(b1-4)[Fuc(a1-3)]GlcNAc(b1-3)Gal
Outline: as §1

[38] = biological target: Neu5Ac(a2-3)Gal(b1-4)[Fuc(a1-3)]GlcNAc(b1-3)Gal(b1-4)GlcNAc
Outline: as §1

[39] = biological target: Neu5Ac(a2-3)Gal(b1-4)[Fuc(a1-3)]GlcNAc(b1-3)Gal(b1-4)[Fuc(a1-3)]GlcNAc(b1-3)Gal(b1-4)[Fuc(a1-3)]GlcNAc
Outline: as §1

[40] = biological target: Neu5Ac(a2-3)Gal(b1-4)[Fuc(a1-3)]GlcNAc(b1-3)GalNAc
Outline: as §1

[41] = biological target: Neu5Ac(a2-3)Gal(b1-4)[Fuc(a1-3)]GlcNAc(b1-6)[Gal(b1-3)]GalNAc
Outline: as §1

[42] = biological target: Neu5Ac(a2-3)Gal(b1-4)[Fuc(a1-3)]GlcNAc(b1-6)[Neu5Ac(a2-3)Gal(b1-3)]GalNAc
Outline: as §1

[43] = biological target: Neu5Ac(a2-3)Gal(b1-4)[Fuc(a1-3)]GlcNAc6S
Outline: as §1

[44] = biological target: Neu5Ac(a2-3)Gal6S(b1-4)GlcNAc
Outline: as §1

[45] = biological target: Neu5Ac(a2-3)Gal6S(b1-4)[Fuc(a1-3)]GlcNAc
Outline: as §1

B1: CBM13 2a (Mycobacterium tuberculosum), P64849 (protein)
chain: DGPVQLKSRLGDVCLDAPSGSWFSPLVINPCNGTDFQRWNLTDDRQVESVAFPGECVNIGNALWARLQPCVNWISQHWTVQPDGLVKSDLDACLTVLGGPDPGTWVSTRWCDPNAPDQQWDSVPLEHHHHHH
- glycan array binding signal (z-score) [1]: -0.281
- glycan array binding signal (z-score) [2]: -0.215
- glycan array binding signal (z-score) [3]: -0.344
- glycan array binding signal (z-score) [4]: -0.228
- glycan array binding signal (z-score) [5]: -0.107
- glycan array binding signal (z-score) [6]: -0.258
- glycan array binding signal (z-score) [7]: -0.281
- glycan array binding signal (z-score) [8]: 0.291
- glycan array binding signal (z-score) [9]: -0.236
- glycan array binding signal (z-score) [10]: 0.164
- glycan array binding signal (z-score) [11]: -0.104
- glycan array binding signal (z-score) [12]: -0.275
- glycan array binding signal (z-score) [13]: -0.127
- glycan array binding signal (z-score) [14]: -0.106
- glycan array binding signal (z-score) [15]: -0.048
- glycan array binding signal (z-score) [16]: -0.091
- glycan array binding signal (z-score) [17]: -0.205
- glycan array binding signal (z-score) [18]: -0.017
- glycan array binding signal (z-score) [19]: -0.333
- glycan array binding signal (z-score) [20]: -0.206
- glycan array binding signal (z-score) [21]: -0.249
- glycan array binding signal (z-score) [22]: 7.02
- glycan array binding signal (z-score) [23]: -0.137
- glycan array binding signal (z-score) [24]: 9.05
- glycan array binding signal (z-score) [25]: -0.177
- glycan array binding signal (z-score) [26]: 1.9
- glycan array binding signal (z-score) [27]: 3.14
- glycan array binding signal (z-score) [28]: -0.183
- glycan array binding signal (z-score) [29]: -0.179
- glycan array binding signal (z-score) [30]: -0.323
- glycan array binding signal (z-score) [31]: -0.144
- glycan array binding signal (z-score) [32]: -0.152
- glycan array binding signal (z-score) [33]: -0.238
- glycan array binding signal (z-score) [34]: -0.251
- glycan array binding signal (z-score) [35]: -0.242
- glycan array binding signal (z-score) [36]: -0.181
- glycan array binding signal (z-score) [37]: -0.247
- glycan array binding signal (z-score) [38]: -0.198
- glycan array binding signal (z-score) [39]: 0.61
- glycan array binding signal (z-score) [40]: -0.157
- glycan array binding signal (z-score) [41]: 0.119
- glycan array binding signal (z-score) [42]: -0.045
- glycan array binding signal (z-score) [43]: -0.35
- glycan array binding signal (z-score) [44]: -0.122
- glycan array binding signal (z-score) [45]: -0.271
